In the RNAGym collection of RNA variant scans (doi:10.7554/elife.90254) one finds self-cleavage data, which are given here for 20 variants.

Read counts are not given, so values of variants with three or more changes are uncertain.

To fix the notation:
B1: OR4K15 (parent)
chain: GUUAACGGUCAUAGGCCAUGGAAACUAGGAGCACCAUUUCGCUGCCAGUGAAGAAAUGAACAAAGAAAAUCUGGGCCAGGCAGGCAUCAAAAGAAAUAGUCUUGCGCUCAACCAGAAAGUCUGUAAUCAUUUUAAGGGUA

Variants of B1 are the subject of the data set. The data set can be described thus: self-cleavage, relative activity (ratio to wild type); higher = more cleavage; in vitro, sequencing; the parent is a self-cleaving ribozyme.
Regarding GUUAACGGUCAUAGGCCAUGGAAGCUAGGAGCACCAUUUCGCUGCCAGUGAAGGAAUGAGCAAAGAAAAUCUGGGCCAGGCAGGCAUCAAAAGAAAUAGUCUUGCGCUCAACCAGAAAGUCUGUAAUCAUUUUAAGGGUA [A24G A54G A60G], the self-cleavage came out at 1.3.
In the case of GUUAACGGUCAUAGGCCAUGGAAGCUAGGAGCACCAUUUCGCUGCCAGUGAAGAAAUGAACAGAGAAAAUCUGGGCCAGGCAGGCAUCAAGAGAAAUAGUCUUGCGCUCAACCAGAAAGUCUGUAAUCAUUUUAAGGGUA [A24G A63G A91G] it was 1.42.
In the case of GUUAACGGUCAUAGGCCAUGGAAGCUAGGAGCACCAUUUCGCUGCCAGUGAAGAAAUGAACAAAGAGAAUCUGGGCCAGGCAGGCAUCAAAAGAAAUAGUCUUGCGCACAACCAGAAGGUCUGUAAUCACUUUAAGGGUA [A24G A67G U108A A118G U130C], the self-cleavage came to 0.
In the case of GUUAACGGUCAUAGGCCAUGGAAGCUAGGAGCACCAUUUCGCUGCCAGUGAAGAAAUGUACAAAGAAAAUCUGGGCCAGGCAGGCAUCAAAAGAAAUAGUCUUGCGCUCAACCAGAUAGUCUGUAAUCAUUUUAAGGGUA [A24G A59U A117U] it was 0.77; in that of GUUAACGGUCAUAGGCCAUGGAAGCUAGGAGCACCAUUUCGCUGCCAGUGAAGGAAAGAACAAAGAAAAUCUGGGCCAGGCAGGCGUCAAAGGAAAUAGUCUUGCGCUCAACCAGAAAGUCUGUAAUCACUUUAAGGGUA [A24G A54G U57A A86G A92G U130C], 0.31; in that of GUUAACGGUCAUAGGCCAUGGAAGCUAGGAGCACCAUUUCGCUGCCAGUGAAGAAAUGAACAAAGAAAUUCUGGGCGAGGCAGGCAUCAAAAGAAAUAGUCUUGCGCUCAACCAGAAAGUCUGUAAUCAUUUUAGGGGUA [A24G A69U C77G A135G], 0.1.
Under GUUAACGGUCAUAGGCCAUGGAAGCUAGGAGCACCAUUUCGCUGCCAGUGAAGAAAUGAACAAAGAAAUUCUGGGCCGGGCAGGCAUCAAAAGAAAUAGUCUUGCGCUCAACCAGAAAGUCUGUAAUCAUUUUAAGGGUA [A24G A69U A78G] stands 0.26.
In the case of GUUAACGGUCAUAGGCCAUGGAAGCUAGGAGCACCAUUUCGCUGCCAGUGAAGAGAUGAACAAAGAAAAUCUGGGCCAGGCAGGCACCAAAAGAAAUAGUCUUGCGCUCGACCAGAAAGUCUGUAAUCAUUUUAAGGGUA [A24G A55G U87C A110G], the self-cleavage was 0.05.
Under GUUAACGGUCAUAGGCCAUGGAAGCUAGGAGCACCAUUUCGCUGCCAGUGAAGAAAUGAACAAGGAUAAUCUGGGCCAGGCAGGCGUCAAAAGAAAUAGUCUUGCGCUCAACCAGAGAGUCUGUAAUCAUUUUAAGGGCA [A24G A64G A67U A86G A117G U139C] stands 1.45; under GUUAACGGUCAUAGGCCAUGGAAGCUAGGAGCACCAUUUCGCUGCCAGUGAAGAAAUGAACAAAGGAAAUCUGGGCCAGGCAGGCGUCGAAAGAAAUAGUCUUGCGCUCAACCAGAAAGUCUGUAAUCAUUUUAAGGGUU [A24G A66G A86G A89G A140U], 0.67.
GUUAACGGUCAUAGGCCAUGGAAGCUAGGAGCACCAUUUCGCUGCCAGUGAAGAAAUGAACAAAGAGAACCUGGGCCAGGCAGGCAUCAGAAGAAAUAGUCUUGCGCUCCACCAGAAAGUCUGUAAUCAUUUUAAGGGUA [A24G A67G U70C A90G A110C]: the self-cleavage was 0.11.
Consider GUUAACGGUCAUAGGCCAUGGAAGCUAGGAGCACCAUUUCGCUGCCAGUGAAGAAAUGAACGAAGAAAAUCUGGGCCAGGCAGGCAUCAAAAGAAAUAGUCUUGCGCUCAACCAGAAAGUCUGAAAUCAUUCUAAGGGUA [A24G A62G U124A U132C], for which the self-cleavage turned out to be 0.15.
Under GUUAACGGUCAUAGGCCAUGGAAGCUAGGAGCACCAUUUCGCUGCCAGUGAAGAAAUGAACAAAGAAAUUCUGGGCCAGGCAGGCAUCAAAAGAAAUAGUCUUGCGCUCAACCAGAAAGUCCGUAAUCAUUUUAAGAGUA [A24G A69U U122C G137A] stands 1.13.
Under GUUAACGGUCAUAGGCCAUGGAAGCUAGGAGCACCAUUUCGCUGCCAGUGAAGAAAUGGACGAAGAAAAUCUGGGCCAGGCAGGCAUCAAAAGGAAUAGUCUUGCGCUCAACCAGAAAGUCUGUAAUCAUUUUAAGUGUA [A24G A59G A62G A94G G137U] stands 1.18; under GUUAACGGUCAUAGGCCAUGGAAGCUAGGAGCACCAUUUCGCUGCCAGUGAAGAAAUGAACAAAGGAAAUCUGGGCCUGGCAGGCAUCAAAAGAAAUAGUCUUGCGCUCAACCAGAAAGUCUGUAAUCAUUUUAAGGGUA [A24G A66G A78U], 0.51; under GUUAACGGUCAUAGGCCAUGGAAGCUAGGAGCACCAUUUCGCUGCCAGUGAAGAAGUGAACAAAGAAAAUCAGGGCCAGGCAGGCAUCAAAAGAAAUAGUCUCGCGCUCAACCAGGAAGUCUGUAAACAUUUUAAGGGUA [A24G A56G U72A U103C A116G U127A], 0.04.
In the case of GUUAACGGUCAUAGGCCAUGGAAGCUAGGAGCACCAUUUCGCUGCCAGUGAAGGAAUGAACAAUGAAAAUCUGGGCCAGGCAGGCAUCAAAAGAAAUAGUCCUGCGCUCAACCAGAAAGUCUGUAAUCAUUUUAAGGGUA [A24G A54G A64U U102C] it was 2.12; in that of GUUAACGGUCAUAGGCCAUGGAAGCUAGGAGCACCAUUUCGCUGCCAGUGAAGAGAUGAACAAAGAAAAUCGGGGCCAGGCAGGCAUCGAAAGAAAUAGUCUUGCGCUCAACCAGAAAGUCUGUAAUCAUUUUAAGGGUA [A24G A55G U72G A89G], 0.15.
Regarding GUUAACGGUCAUAGGCCAUGGAAGCUAGGAGCACCAUUUCGCUGCCAGUGAAGAAGUGAACAAAGAAAAUCUGGGCCAGGCUGGCAUCAAAAGAAUUAGUCUUGCGCUCAACCAGAAAGUCUGUUAUCAUUUUAAGGGUA [A24G A56G A82U A96U A125U], the self-cleavage stood at 0.09.
As for GUUAACGGUCAUAGGCCAUGGAAGCUAGGAGCACCAUUUCGCUGCCAGUGAAGAAGUGAACAAAGAAAAUCUGGGCCAGGCAGACAUCAAAAGAAAUAGUCUUGCGCUCAACCAGAAAGUCUGUAAUCAUUCUAAGGGUA [A24G A56G G84A U132C], the self-cleavage was determined as 1.5.
